Source: the supplement of paper PMC4967469
The IC50 comes from the fitted curve, where viability falls to half of the control; a limit (>, <) means that the fit lies beyond the doses tested. AUC, from the same fit, is the share of area under the viability curve across the 256-fold dose range; the more sensitive the line, the further below 1. For some assays here: Any top dose called inferred comes from the curve model; the source does not state it. For some assays here: Where an entry number is given, a second screen of the drug exists; the two often differ.

Key:
Assay in all cases: Viability of human cancer cell lines after 72 h of drug (GDSC screen)
YM201636 = compound: Nc1ccc(C(=O)Nc2cccc(-c3nc(N4CCOCC4)c4oc5ncccc5c4n3)c2)cn1 [YM201636]; conditions: top dose 5.12 µM; top dose inferred
Procedure: (§1)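 Human cancer cell lines in 384-well plates, medium with 10% serum, drug for 72 h over a 256-fold dose range (nine 2-fold or five 4-fold steps up to the top dose). Adherent lines were fixed and stained with the nucleic acid dye Syto60, suspension lines read with resazurin; signal relative to control wells, capped at 0 and 100%. One two-parameter sigmoid per drug and line, fitted in a mixed model over all curves with the slope shared within a line.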

AS601245 = compound: N#CC(c1ccnc(NCCc2cccnc2)n1)c1nc2ccccc2s1 [AS601245]; conditions: top dose 8 µM; top dose inferred
Procedure: as §1

AZD6244 = compound: Cn1cnc2c(F)c(Nc3ccc(Br)cc3Cl)c(C(=O)NOCCO)cc21 [AZD6244]; conditions: top dose 4 µM; screen: GDSC drug entry 1498; top dose inferred
Procedure: as §1

EX-527 = compound: NC(=O)C1CCCc2c1[nH]c1ccc(Cl)cc21 [EX-527]; conditions: top dose 20 µM
Procedure: as §1

Cell Line	AUC (YM201636)	IC50 (YM201636) [µM]	AUC (AS601245)	IC50 (AS601245) [µM]	AUC (AZD6244)	IC50 (AZD6244) [µM]	AUC (EX-527)	IC50 (EX-527) [µM]
Mewo (melanoma, adherent)	0.973	> 5.12	0.941	> 8	0.768	1.79	0.979	> 20
NCI-H23 (lung adenocarcinoma, adherent)	0.946	> 5.12	0.954	> 8	0.956	> 4	0.987	> 20
NCI-H28 (mesothelioma, adherent)	0.939	> 5.12	0.777	4.3	0.911	> 4	0.981	> 20
NCI-H196 (small cell lung carcinoma, adherent)	0.945	> 5.12	0.959	> 8	0.98	> 4	0.988	> 20
NCI-H292 (lung adenocarcinoma, adherent)	0.788	2.78	0.942	> 8	0.306	0.0627	0.979	> 20
NCI-H358 (lung adenocarcinoma, adherent)	0.891	> 5.12	0.691	1.84	0.817	2.57	0.981	> 20
NCI-H441 (lung adenocarcinoma, adherent)	0.943	> 5.12	0.764	4.13	0.761	2	0.98	> 20
NCI-H520 (lung squamous cell carcinoma, adherent)	0.665	0.939	0.868	7.69	0.986	> 4	0.981	> 20
NCI-H522 (lung adenocarcinoma, adherent)	0.854	> 5.12	0.826	6.12	0.91	> 4	0.982	> 20
NCI-H596 (lung adenocarcinoma, adherent)	0.923	> 5.12	0.885	> 8	0.915	> 4	0.982	> 20
NCI-H647 (non-small cell lung carcinoma, adherent)	0.835	3.61	0.89	> 8	0.897	> 4	0.985	> 20
NCI-H650 (lung adenocarcinoma, adherent)	0.946	> 5.12	0.931	> 8	0.93	> 4	0.981	> 20
NCI-H661 (large cell lung carcinoma, adherent)	0.905	> 5.12	0.88	> 8	0.928	> 4	0.972	> 20
NCI-H727 (lung carcinoid, adherent)	0.907	> 5.12	0.588	1.02	0.555	0.389	0.976	> 20
NCI-H810 (large cell lung carcinoma, adherent)	0.901	> 5.12	0.775	3.03	0.985	> 4	0.984	> 20
NCI-H838 (lung adenocarcinoma, adherent)	0.904	> 5.12	0.882	> 8	0.927	> 4	0.981	> 20
NCI-H841 (small cell lung carcinoma, adherent)	0.902	> 5.12	0.915	> 8	0.975	> 4	0.987	> 20
NCI-H1048 (small cell lung carcinoma, adherent)	0.73	1.33	0.926	> 8	0.979	> 4	0.984	> 20
NCI-H1435 (lung adenocarcinoma, semi-adherent)	0.975	> 5.12	0.865	5.8	0.99	> 4	0.986	> 20
NCI-H1437 (lung adenocarcinoma, adherent)	0.844	3.91	0.82	4.84	0.59	0.446	0.986	> 20
NCI-H1563 (lung adenocarcinoma, adherent)	0.77	2.33	0.921	> 8	0.969	> 4	0.903	> 20
NCI-H1568 (lung adenocarcinoma, adherent)	0.97	> 5.12	0.872	> 8	0.863	> 4	0.981	> 20

Cell Line	AUC (YM201636)	IC50 (YM201636) [µM]	AUC (AS601245)	IC50 (AS601245) [µM]	AUC (AZD6244)	IC50 (AZD6244) [µM]	AUC (EX-527)	IC50 (EX-527) [µM]
NCI-H1573 (lung adenocarcinoma, adherent)	0.928	> 5.12	0.976	> 8	0.939	> 4	0.991	> 20
NCI-H1623 (lung adenocarcinoma, adherent)	0.911	> 5.12	0.832	6.79	0.806	2.59	0.985	> 20
NCI-H1651 (lung adenocarcinoma, adherent)	0.986	> 5.12	0.893	> 8	0.952	> 4	0.987	> 20
NCI-H1688 (small cell lung carcinoma, adherent)	0.613	0.675	0.87	> 8	0.956	> 4	0.985	> 20
NCI-H1693 (lung adenocarcinoma, adherent)	0.953	> 5.12	0.957	> 8	0.769	2.52	0.969	> 20
NCI-H1703 (lung adenocarcinoma, adherent)	0.903	> 5.12	0.881	> 8	0.975	> 4	0.982	> 20
NCI-H1755 (lung adenocarcinoma, adherent)	0.658	0.946	0.834	6.38	0.94	> 4	0.889	> 20
NCI-H1781 (lung adenocarcinoma, adherent)	0.988	> 5.12	0.866	7.11	0.978	> 4	0.989	> 20
NCI-H1792 (lung adenocarcinoma, adherent)	0.918	> 5.12	0.915	> 8	0.759	1.27	0.99	> 20
NCI-H1793 (lung adenocarcinoma, adherent)	0.968	> 5.12	0.895	> 8	0.88	> 4	0.981	> 20
NCI-H1915 (large cell lung carcinoma, adherent)	0.958	> 5.12	0.835	5.38	0.61	0.505	0.986	> 20
NCI-H1944 (lung adenocarcinoma, adherent)	0.805	2.79	0.787	3.73	0.599	0.477	0.984	> 20
NCI-H1993 (lung adenocarcinoma, adherent)	0.847	> 5.12	0.978	> 8	0.924	> 4	0.983	> 20
NCI-H2009 (lung adenocarcinoma, adherent)	0.944	> 5.12	0.857	7.13	0.829	2.68	0.976	> 20
NCI-H2029 (small cell lung carcinoma, adherent)	0.965	> 5.12	0.983	> 8	0.99	> 4	0.989	> 20
NCI-H2030 (lung adenocarcinoma, adherent)	0.78	2.42	0.802	4.59	0.678	0.85	0.982	> 20
NCI-H2085 (lung adenocarcinoma, adherent)	0.884	> 5.12	0.859	7.56	0.917	> 4	0.967	> 20
NCI-H2087 (lung adenocarcinoma, semi-adherent)	0.936	> 5.12	0.807	4.51	0.66	0.725	0.965	> 20
NCI-H2110 (non-small cell lung carcinoma, adherent)	0.69	1.11	0.978	> 8	0.897	> 4	0.986	> 20
NCI-H2122 (lung adenocarcinoma, adherent)	0.945	> 5.12	0.543	0.651	0.787	1.62	0.975	> 20
NCI-H2170 (lung squamous cell carcinoma, adherent)	0.96	> 5.12	0.772	3.23	0.985	> 4	0.986	> 20
